The target of one test is PRA1-VN173 (mouse) (UniProt Q9Z0S9). In words: split reporter; BiFC with Venus halves VN173 and VC155 in co-transfected COS-7 cells; confocal images 48 h after transfection.
Test [1] concerns the target LexA-VP16-CUB-PRA1 (mouse) (UniProt Q9Z0S9). In words: two-hybrid; split-ubiquitin yeast two-hybrid screen (DUALmembrane) in S. cerevisiae NMY51; bait LexA-VP16-CUB-PRA1 against a normalized adult mouse brain NUBG-X cDNA library; growth on SD-TRP-LEU-HIS-ADE at 30 °C; hits re-transformed into fresh bait strain and plated on dropout media to confirm.

Amino acid sequences for entries named in this document (tags omitted). Residues count along the entry.
UniProt Q9JHS3: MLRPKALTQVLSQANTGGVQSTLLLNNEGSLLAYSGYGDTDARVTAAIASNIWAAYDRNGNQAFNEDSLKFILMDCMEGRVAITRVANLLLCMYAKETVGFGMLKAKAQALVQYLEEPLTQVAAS
UniProt P02545, residues 1-646: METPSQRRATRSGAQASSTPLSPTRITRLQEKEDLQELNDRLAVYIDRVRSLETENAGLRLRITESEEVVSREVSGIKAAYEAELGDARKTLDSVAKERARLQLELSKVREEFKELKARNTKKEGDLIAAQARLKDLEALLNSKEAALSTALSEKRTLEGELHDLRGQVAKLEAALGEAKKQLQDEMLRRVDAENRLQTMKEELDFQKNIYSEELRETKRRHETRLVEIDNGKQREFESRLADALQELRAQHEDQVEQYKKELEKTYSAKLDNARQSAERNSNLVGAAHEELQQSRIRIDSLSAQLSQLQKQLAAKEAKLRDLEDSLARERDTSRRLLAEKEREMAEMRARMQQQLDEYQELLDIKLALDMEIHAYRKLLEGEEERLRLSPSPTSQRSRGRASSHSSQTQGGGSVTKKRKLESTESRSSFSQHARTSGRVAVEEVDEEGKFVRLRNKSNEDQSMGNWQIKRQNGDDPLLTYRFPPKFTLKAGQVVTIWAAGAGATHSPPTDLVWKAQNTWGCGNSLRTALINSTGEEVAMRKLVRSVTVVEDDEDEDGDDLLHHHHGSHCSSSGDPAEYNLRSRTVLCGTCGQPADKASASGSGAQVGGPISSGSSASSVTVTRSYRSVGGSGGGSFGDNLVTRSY

No constants are given. Whether binding was seen depends on the method and setting. For some assays here: In cells and extracts the contact can be indirect. Some binding calls cover weakened binding; strength is not graded here.

This passage reports binding results from publication PMC6441142.

“LAMTOR2-VC155 (from UniProt Q9JHS3 1-125)”: the binding entry with PRA1-VN173 (mouse) is “binds”.

Regarding “Lamin-A-VC155 (from UniProt P02545 1-646)”, the binding entry with PRA1-VN173 (mouse) is given as “no binding”.

With Lamtor2 (from UniProt Q9JHS3 1-125), the binding result in test [1] is reported as “binds”.

B1: Copz1 (protein, UniProt P61924 1-177)
chain: MEALILEPSLYTVKAILILDNDGDRLFAKYYDDTYPSVKEQKAFEKNIFNKTHRTDSEIALLEGLTVVYKSSIDLYFYVIGSSYENELMLMAVLNCLFDSLSQMLRKNVEKRALLENMEGLFLAVDEIVDGGVILESDPQQVVHRVALRGEDVPLTEQTVSQVLQSAKEQIKWSLLR
With B1, in test [1], the binding result was “binds”.

B2: ζ1-COP-VC155 (protein, UniProt P61924 1-177)
chain: B1 chain
With B2, in the test with PRA1-VN173 (mouse), the binding result was “binds”.
